# Results taken from PubChem BioAssay AID686970 (National Center for Advancing Translational Sciences (NCATS), 2013).
# Hit rate of the full screen: of about 360,000 compounds, about 6,000 (1.7%) were called active. The inconclusive results got no clear call from the source; some entries with a clear call stand among them for comparison. Calls follow the shape of the dose curve; as a rule, active = well fitted cell-killing curve with a large enough effect; inconclusive = small, poorly fitted or top-dose-only effect, or effect the other way; inactive = flat fitted curve, though single readings scatter. Potencies of inconclusive entries are left out as doubtful fits.
# Assay: qHTS for induction of synthetic lethality in tumor cells producing 2HG: qHTS for the HT-1080-NT fibrosarcoma cell line;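 also: NT is the 2HG producing partner of a matched IDH1 knockdown line; nearly all actives have a fitted effect of over 55% in size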;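 as to activity, negative = less viability: 0% = DMSO-treated cells and -100% = media-only wells without cells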
# Conditions: HT-1080-NT fibrosarcoma viability, CellTiter-Glo ATP luminescence, 48 h; activity, negative = less viability: at 46.1 µM (top of the series) unless noted
# How it was run: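 750 cells/well, RPMI + 5% FBS; 2 h settle, compound pin-transfer, 48 h at 37 degrees C. CellTiter-Glo 10 min RT, luminescence. Normalized to DMSO and media-only wells.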
# Potency is read from the fitted curve at half-maximal effect; tags tell the direction and shape of the fitted curve.
Compound,"activity, negative = less viability",Potency
Cc1ccc(C23CC4CC(CC(C(=O)N5CCN(C)CC5)(C4)C2)C3)cc1,inactive: -16.3%,
Cc1ccccc1-c1nn(-c2ccc(F)cc2F)cc1CNCCCN(C)C,,"inconclusive [cytotoxic, single point]"
CCc1ccc2[nH]c(=O)c(C(c3nnnn3CCOC)N3CCN(c4ccccc4F)CC3)cc2c1 (centres undefined),,"inconclusive [cytotoxic, single point]"
O=c1cc(-c2ccc([N+](=O)[O-])cc2)c2ccc(O)cc2o1,,"inconclusive [cytotoxic, single point]"
COc1cccc(C(=O)NC2CCN(C(=O)N3c4ccccc4Sc4ccccc43)CC2)c1,,"inconclusive [cytotoxic, single point]"
CC1=C(O)C(=O)C(c2c(C)cc(C)c(Br)c2C)=C(O)C1=O,,"inconclusive [cytotoxic, single point]"
Clc1ccc2c(NCc3ccccn3)ncnc2c1,inactive: 4.16%,
CC(C)c1ccc(OCc2ccc(C(=O)N(C)C)o2)cc1,,"inconclusive [cytotoxic, single point]"
O=C(c1ccc(COc2ccc3c(c2)CCC3)o1)N1CCN(c2ccccc2)CC1,,"inconclusive [cytotoxic, single point]"
O=C1NC[C@H](Cc2ccccc2)N(C[C@H]2CCCN2C[C@H](Cc2ccccc2)N2C[C@H](Cc3ccccc3)N(CC3CCCCCC3)C(=O)C2=O)C1=O,,"inconclusive [cytotoxic, single point]"
COc1ccc(C(NC(=O)C2CCN(Cc3ccc(Oc4ccccc4)cc3)CC2)c2ccccc2C)cn1 (centres undefined),,active: 16.4 µM
COCCNC(=O)C1(C)CCCN(C(=O)c2ccccc2C(F)(F)F)C1 (centres undefined),,"inconclusive [rising, partial curve]"
CCOC(=O)/C(=N\Nc1ccc(Cl)cc1)c1csc(Nc2ccccc2)n1,,"inconclusive [cytotoxic, single point]"
C#C[C@]1(O)CC[C@H]2[C@@H]3CCc4cc(O)ccc4[C@H]3CC[C@@]21C,,active: 9.2 µM
CCCCN(CCCC)CCC(O)c1cc2c(Cl)cc(Cl)cc2c2cc(C(F)(F)F)ccc12 (centres undefined),,active: 14.6 µM
Cc1ccc(F)cc1NC(=O)C1CC(=O)N(Cc2ccccc2)C1 (centres undefined),inactive: -0.753%,
NC(N)=N/N=C/c1ccc(OCc2ccccc2)c(OCc2ccccc2)c1,,active: 23.1 µM
COc1ccc(CNC(=O)CCn2c(=O)c3cccn3c3ccc(F)cc32)cc1,,"inconclusive [rising, single point]"
Oc1cccc(/C=N/Nc2cccc3cccnc23)c1,,"inconclusive [cytotoxic, partial curve]"
O=C(NCc1ccc(Cl)cc1)c1ccccc1CCc1ccccc1,inactive: -1.96%,
O=C(O)CCC(=O)Nc1sc2c(c1C(=O)Nc1ccccc1)CCCCC2,,active: 20.6 µM
CCOC(=O)C(C)Sc1nc2c([nH]c3ccccc32)c(=O)n1C (centres undefined),,"inconclusive [cytotoxic, partial curve, poor fit]"

Compound,"activity, negative = less viability",Potency
COc1ccc(CSc2n[nH]c(C)n2)cc1[N+](=O)[O-],inactive: 22.6%,
CC1(C(=O)Nc2ccc(Cl)c(C(F)(F)F)c2)Cc2c(-c3ccc(C(N)=O)cc3)ccnc2O1 (centres undefined),,active: 16.4 µM
O=C(c1ccc(Cl)cc1)c1c[nH]c(C(=O)NNc2ccccc2)c1,,"inconclusive [cytotoxic, full curve]"
NC(=S)NN=Cc1nccc2c(N)cccc12,,"inconclusive [cytotoxic, partial curve]"
CC1(C)OC2CC3C4CCC5=CC(=O)CCC5(C)C4(F)C(O)CC3(C)C2(C(=O)CO)O1 (centres undefined),,"inconclusive [rising, full curve]"
COc1ccc(-c2nc(NC(=O)c3[nH]c(C)c(C(C)=O)c3C)sc2C)cc1,,"inconclusive [cytotoxic, single point]"
O=C(Nc1ccc2c(c1)CCCN2C(=O)c1cccs1)c1ccccc1,,"inconclusive [cytotoxic, single point]"
Cc1ccc(Cn2c(Sc3ncccn3)nc3c2c(=O)[nH]c(=O)n3C)cc1,,"inconclusive [cytotoxic, single point]"
O=C(NCc1cccnc1)C1CCC(c2ccc(Cl)cc2)CC1 (centres undefined),,"inconclusive [cytotoxic, single point]"
COC(=O)c1ccc(NC(=S)NCCC2=CCCCC2)cc1,,"inconclusive [cytotoxic, single point]"
N#CCc1ccc(Oc2ncc(C(F)(F)F)cc2Cl)cc1,inconclusive: 5.72% [cytotoxic],
Cc1c(C(=O)C(=O)N2c3ccc(F)cc3CCC2C)c2ccccc2n1C (centres undefined),,active: 3.26 µM
CC(=O)Nc1ccc(S(=O)(=O)N2CCC(=O)Nc3ccccc32)cc1,,"inconclusive [rising, single point]"
CCOc1ccc(NC(=O)c2ccccc2NC(=O)CN2CCCCCC2)cc1,inactive: -3.81%,
Cc1ccccc1OCCCCc1c(C)n[nH]c1C,,"inconclusive [cytotoxic, single point]"
Cc1ccc(C(=O)COC(=O)CN2C(=O)C3C4CCC(C4)C3C2=O)cc1[N+](=O)[O-] (centres undefined),inactive: 4.98%,
COc1ccc(N2C(=O)CC(N(CCc3ccc(S(N)(=O)=O)cc3)C(=S)Nc3ccccc3)C2=O)cc1 (centres undefined),,"inconclusive [cytotoxic, single point]"
CCOc1cccc(-c2c(C(=O)N/N=C/c3sccc3C)nnn2-c2nonc2N)c1,,"inconclusive [cytotoxic, single point]"
CCCc1nc2c3ccccc3ccn2c1Cc1ccc(C)cc1,,"inconclusive [cytotoxic, single point]"
Cc1ccc(N(C)C(=O)c2cc(S(=O)(=O)N3CCc4ccccc43)cn2C)cc1,inactive: -5.52%,
CN(C)c1ccc(C2C=C(c3ccc(Cl)cc3OC(F)F)Nc3ncnn32)cc1 (centres undefined),,"inconclusive [cytotoxic, single point]"
O=C(Cn1c(O)c(/C=C2\C=Nc3ccccc32)sc1=O)Nc1ccc2c(c1)OCO2,inconclusive: 31.2%,
